# Assay results: PubChem BioAssay AID504937 (National Center for Advancing Translational Sciences (NCATS), 2011)
# Among all 340,000 compounds or so, about 20 (0.006%) were called active. Inconclusive results, whose numbers are uncertain, are shown with a selection of clear calls. Calls follow the shape of the dose curve; as a rule, active = well fitted inhibition curve with a large enough effect; inconclusive = small, poorly fitted or top-dose-only effect; inactive = no such curve, though single readings can be large or run the other way. Where the call is inconclusive, the potency comes from a doubtful curve fit.
# Target: Sphingomyelin phosphodiesterase (Homo sapiens) (UniProt P17405)
# Sequence of UniProt P17405 (P17405 whole entry, looked up): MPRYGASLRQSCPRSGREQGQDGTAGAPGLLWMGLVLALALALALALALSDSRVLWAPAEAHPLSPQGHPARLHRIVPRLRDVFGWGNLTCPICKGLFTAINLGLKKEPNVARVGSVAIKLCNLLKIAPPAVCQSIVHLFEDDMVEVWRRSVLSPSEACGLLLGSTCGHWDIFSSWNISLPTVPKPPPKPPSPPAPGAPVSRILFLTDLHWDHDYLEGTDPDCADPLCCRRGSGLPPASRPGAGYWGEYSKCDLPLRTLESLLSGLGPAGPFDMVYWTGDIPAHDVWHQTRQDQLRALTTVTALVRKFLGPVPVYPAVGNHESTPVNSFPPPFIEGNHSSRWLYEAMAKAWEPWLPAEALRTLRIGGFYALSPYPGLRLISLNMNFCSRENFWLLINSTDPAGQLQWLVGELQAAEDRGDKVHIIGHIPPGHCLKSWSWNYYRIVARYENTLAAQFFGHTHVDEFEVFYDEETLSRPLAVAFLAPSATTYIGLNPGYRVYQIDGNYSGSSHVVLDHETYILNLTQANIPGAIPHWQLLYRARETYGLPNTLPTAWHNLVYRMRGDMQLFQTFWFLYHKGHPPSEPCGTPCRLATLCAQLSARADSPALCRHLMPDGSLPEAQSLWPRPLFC
# Experiment: Inhibitors of Secretory Acid Sphingomyelinase (S-ASM): qHTS
# Settings: placental ASM, HMU-PC fluorogenic substrate (series up to 57.5 µM), 60 min; activity change, negative = inhibition: at the top concentration
# Summary of the method: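 Steps: dispense placental human ASM, pin compound, wait 10 min at room temperature, add HMU-PC0 substrate at 9 uM final, incubate 60 min at 37 °C, add stop solution raising pH to 10, read fluorescence.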
# Potency is read from the fitted curve at half-maximal effect; tags tell the direction and shape of the fitted curve.
Structure (SMILES),Potency,"activity change, negative = inhibition"
CCC1=NN2C(=N)/C(=C\c3cccn3-c3ccc(C)c(C)c3)C(=O)N=C2S1,"inconclusive: 126 µM [inhibitor, partial curve, poor fit]",
COc1ccc(NC(=O)CCOc2ccc(C)cc2)cc1S(=O)(=O)N1CCCCC1,"inconclusive: 631 µM [inhibitor, partial curve, poor fit]",
Cc1ccc(OCCCC(=O)Nc2ccc(S(=O)(=O)N3CCOCC3)cc2)cc1,"inconclusive: 126 µM [inhibitor, partial curve, poor fit]",
COc1ccccc1C1/C(=C(/O)c2ccccc2)C(=O)C(=O)N1CCO (stereo not given),,inactive: 3.81%
Cc1cccc(OCC(=O)Nc2ccc(N3CCCC3)cc2)c1C,"inconclusive: 126 µM [inhibitor, partial curve, poor fit]",
CCOc1ccc(OCCn2c(=S)[nH]c3ccccc32)cc1,,inactive: -19%
Oc1ccc(C[C@H]2CNC(=S)N2CC2CCCN2C[C@H](Cc2ccccc2)N2C[C@H](Cc3ccc(O)cc3)N(CC3CCCCCC3)C2=S)cc1 (stereo not given in full),"inconclusive: 39.8 µM [inhibitor, partial curve]",
COc1ccccc1Nc1nc(-c2ccc3c(c2)NC(=O)CO3)cs1,"inconclusive: 100 µM [inhibitor, partial curve, poor fit]",
Cc1cc(O)c(-c2n[nH]c3c2C(c2cccc(O)c2)N(Cc2cccnc2)C3=O)cc1Cl (stereo not given),"inconclusive: 70.8 µM [inhibitor, single point]",
O=C(NCc1ccccc1)C(c1ccccc1)N(C(=O)c1csnn1)c1ccccc1 (stereo not given),,inactive: 1.37%
Cc1ccc(C(=O)NN2C(=O)/C(=C/c3cccn3C)SC2=S)cc1,"inconclusive: 100 µM [inhibitor, partial curve, poor fit]",
O=C(/C=C/c1cc([N+](=O)[O-])ccc1OC(F)F)NCc1ccc(Cl)cc1,"inconclusive: 398 µM [inhibitor, partial curve, poor fit]",
COc1cc(-c2nnc(COc3ccc4ccccc4c3)o2)cc(OC)c1OC,"inconclusive: 63.1 µM [inhibitor, partial curve, poor fit]",
CCOC(=O)/C(C#N)=C/c1c(N2CCN(c3ccccc3)CC2)nc2c(C)cccn2c1=O,"inconclusive: 251 µM [inhibitor, partial curve, poor fit]",
CCc1ccc(NC(=O)C2CCN(S(=O)(=O)c3ccc4c(c3)NC(=O)C(C)S4)CC2)cc1 (stereo not given),"inconclusive: 282 µM [inhibitor, partial curve, poor fit]",
O=C(Nc1cccnc1)c1cn(-c2ccccc2)nc1-c1cccs1,"inconclusive: 100 µM [inhibitor, partial curve, poor fit]",
CCn1c(SCC(=O)Nc2nc(-c3ccc(C)cc3)cs2)nnc1-c1ccccc1O,"inconclusive: 100 µM [inhibitor, partial curve, poor fit]",
COc1ccc(C(C#N)=C2C=CC(=NO)C(C)=C2Cl)cc1,"inconclusive: 200 µM [inhibitor, partial curve, poor fit]",
CCN(Cc1ccccc1)C(=O)c1cccc(S(=O)(=O)N2CCN(c3ccc(F)cc3)CC2)c1,"inconclusive: 4470 µM [inhibitor, partial curve, poor fit]",
COc1ccc(/C=N/Nc2ncnc3sc4c(c23)CCCC4)cc1OC,"inconclusive: 224 µM [inhibitor, partial curve, poor fit]",

Structure (SMILES),Potency,"activity change, negative = inhibition"
OCCCn1c(C2CCCN2c2nc(-c3ccc(Cl)cc3)cs2)nc2cc(C(F)(F)F)ccc21 (stereo not given),"inconclusive: 112 µM [inhibitor, partial curve, poor fit]",
CC(=O)SC1CC(=O)N(c2ccc(C(C)(C)C)cc2)C1=O (stereo not given),,inactive: -2.84%
Oc1cccc(NC(=S)N=Nc2c(O)[nH]c3ccc(Br)cc23)c1,"inconclusive: 89.1 µM [inhibitor, partial curve, poor fit]",
Cc1ccc(/C=C2\Sc3ccccc3C2=O)s1,"inconclusive: 282 µM [inhibitor, partial curve, poor fit]",
CN(C)CCCNC(=O)C[C@H]1C[C@H](C(=O)N2CCCCC2)[C@@]2(CCc3ccccc3)c3[nH]c4cc(-c5ccco5)ccc4c3CCN2C1=O,"inconclusive: 56.2 µM [inhibitor, partial curve]",
CC1CC(C)CN(C(=O)CSCC(=O)Nc2nc(-c3cccs3)cs2)C1 (stereo not given),"inconclusive: 251 µM [inhibitor, partial curve, poor fit]",
Cc1cc(C)c2sc(N(CCCN(C)C)C(=O)COc3ccc(Cl)cc3)nc2c1,"inconclusive: 89.1 µM [inhibitor, single point]",
Cc1ccc(C(=O)OCC(=O)Nc2nc(-c3ccccc3)cs2)cc1NC(=O)c1ccco1,"inconclusive: 20 µM [inhibitor, partial curve, poor fit]",
COc1ccccc1NC(=O)Nc1cccc(NC(C)=O)c1,,inactive: -0.612%
O=C(CCC(=O)c1ccc(Br)cc1)Nc1ccc(F)cc1,,inactive: -5.75%
Cc1ccc2sc(N(CCCN(C)C)C(=O)c3ccc(S(=O)(=O)N(C)Cc4ccccc4)cc3)nc2c1C,"inconclusive: 89.1 µM [inhibitor, partial curve, poor fit]",
COc1cc2c(cc1OC)-c1cc(Nc3ccc(F)cc3)nc(=O)n1CC2,,inactive: 4.54%
COc1ccc2[nH]c(-c3ccc(C)cc3)cc(=O)c2c1,,inactive: -0.995%
O=C(N/N=C\C=C\c1ccc2c(c1)OCO2)C1COc2cc3ccccc3cc2O1 (stereo not given),"inconclusive: 35.5 µM [inhibitor, partial curve, poor fit]",
COc1ccccc1NC(=O)Nc1nc(C(C)(C)C)cs1,"inconclusive: 100 µM [inhibitor, partial curve, poor fit]",
O=C1NN=C(c2ccc(Cl)cc2)CC1c1cccc(Br)c1 (stereo not given),"inconclusive: 70.8 µM [inhibitor, single point]",
CCN1CCC(NC(=O)Nc2ccc(F)cc2F)CC1,,inactive: 5.13%
Cc1cc(C(=O)N/N=C/c2cccc([N+](=O)[O-])c2O)n[nH]1,,inactive: -3.03%
Cc1ccc(-c2csc(N3CCN(c4cc5c(cc4Cl)nc(-c4ccncc4)n5CCN4CCCCC4)CC3)n2)cc1,"inconclusive: 56.2 µM [inhibitor, partial curve, poor fit]",
COc1cc(/C=N/Nc2ccc(Cl)c(C(=O)O)c2)ccc1OC(=O)c1cccs1,"inconclusive: 50.1 µM [inhibitor, partial curve, poor fit]",

Structure (SMILES),Potency,"activity change, negative = inhibition"
Cc1scc(-c2n[nH]c(=S)n2C(C)c2ccccc2)c1C (stereo not given),,inactive: -2.45%
O=C1c2ccccc2C(=O)N1OS(=O)(=O)c1ccc(F)cc1,,inactive: 2.93%
COc1cccc(-c2nnc(NC(=O)c3ccc(S(=O)(=O)N4CC(C)OC(C)C4)cc3)o2)c1 (stereo not given),,inactive: -0.242%
CCOc1ccc(OCCNC(=O)c2cc(C3CC3)nc3c2cnn3C(C)C)cc1,"inconclusive: 44.7 µM [inhibitor, partial curve, poor fit]",
O=C(NNc1ccccc1Br)C(O)(c1cccc(C(F)(F)F)c1)c1cccc(C(F)(F)F)c1,,inactive: -20.1%
Cc1cc(NS(=O)(=O)c2ccc(NC(=O)COc3c(C)cc(Br)cc3C)cc2)no1,"inconclusive: 79.4 µM [inhibitor, partial curve]",
Cc1cccc(NC(=O)C(c2cccc([N+](=O)[O-])c2)N2CCCCC2)c1 (stereo not given),,inactive: 1.18%
CCOC(=O)c1c(CSC(=N)N)n(-c2ccc(C)cc2)c2cc(Br)c(OC(C)=O)cc12,"inconclusive: 79.4 µM [inhibitor, single point]",
Cc1cc(=O)[nH]c(N=N/C(=N/Nc2ccc(O)cc2)c2ccccc2)n1,"inconclusive: 501 µM [inhibitor, partial curve, poor fit]",
Cc1ccc(N(Cc2ccco2)C(=O)c2ccc(N3CCCCC3)c([N+](=O)[O-])c2)cc1,"inconclusive: 224 µM [inhibitor, partial curve, poor fit]",
CCC(C)NC(=O)C(Cc1ccccc1)NS(=O)(=O)c1ccc2c(c1)CCC(=O)N2 (stereo not given),,inactive: 0.02%
Cn1c(=O)c2nc(SCCO)n(C)c2n(C)c1=O,,inactive: 1.66%
Cc1cccc(-c2nc(Nc3ccc(N4CCOCC4)cc3)c3ccccc3n2)c1,"inconclusive: 112 µM [inhibitor, partial curve, poor fit]",
COC(=O)[C@@]12CCCCN1[C@H](c1ccc(SC3CCCCC3)cc1)[C@@H]1C(=O)N(C)C(=O)[C@@H]12,"inconclusive: 224 µM [inhibitor, partial curve, poor fit]",
O=C(c1ccc(N2CCCC2)c([N+](=O)[O-])c1)N1CCN(S(=O)(=O)c2ccc(Cl)cc2)CC1,"inconclusive: 794 µM [inhibitor, partial curve, poor fit]",
CCCOc1nc2c(c(=O)n(C)c(=O)n2C)n1Cc1cccc2ccccc12,"inconclusive: 70.8 µM [inhibitor, partial curve]",
Cc1ccc(NS(=O)(=O)c2ccc(NC(=O)c3ccc(Br)o3)cc2)c(C)c1,"inconclusive: 224 µM [inhibitor, partial curve, poor fit]",
COc1cccc2c1C(=O)c1c(O)c3c(c(O)c1C2=O)C[C@](O)(C(C)=O)C[C@H]3O[C@@H]1C[C@@H](N)[C@@H](O)[C@@H](C)O1,"inconclusive: 355 µM [inhibitor, partial curve, poor fit]",
O=S(=O)(Nc1ccc(N=Nc2ccccc2)cc1)c1ccccc1,"inconclusive: 70.8 µM [inhibitor, single point]",
CCc1ccc(Nc2ccc(S(=O)(=O)N3CCOCC3)cc2[N+](=O)[O-])cc1,,inactive: -9.03%
